Data: paper PMC4336329 (PLoS ONE, 2015)
Screen size: about 310,000 compounds; about 2,200 (0.71%) showed an effect of 50% or more. The effect is printed as a negative number. This is one part of the list.

target: human ether-à-go-go-related gene (hERG) potassium channel (human, UniProt Q12809); test: primary screen, population patch clamp on CHO cells stably expressing hERG
Sequence (Q12809 whole entry, looked up): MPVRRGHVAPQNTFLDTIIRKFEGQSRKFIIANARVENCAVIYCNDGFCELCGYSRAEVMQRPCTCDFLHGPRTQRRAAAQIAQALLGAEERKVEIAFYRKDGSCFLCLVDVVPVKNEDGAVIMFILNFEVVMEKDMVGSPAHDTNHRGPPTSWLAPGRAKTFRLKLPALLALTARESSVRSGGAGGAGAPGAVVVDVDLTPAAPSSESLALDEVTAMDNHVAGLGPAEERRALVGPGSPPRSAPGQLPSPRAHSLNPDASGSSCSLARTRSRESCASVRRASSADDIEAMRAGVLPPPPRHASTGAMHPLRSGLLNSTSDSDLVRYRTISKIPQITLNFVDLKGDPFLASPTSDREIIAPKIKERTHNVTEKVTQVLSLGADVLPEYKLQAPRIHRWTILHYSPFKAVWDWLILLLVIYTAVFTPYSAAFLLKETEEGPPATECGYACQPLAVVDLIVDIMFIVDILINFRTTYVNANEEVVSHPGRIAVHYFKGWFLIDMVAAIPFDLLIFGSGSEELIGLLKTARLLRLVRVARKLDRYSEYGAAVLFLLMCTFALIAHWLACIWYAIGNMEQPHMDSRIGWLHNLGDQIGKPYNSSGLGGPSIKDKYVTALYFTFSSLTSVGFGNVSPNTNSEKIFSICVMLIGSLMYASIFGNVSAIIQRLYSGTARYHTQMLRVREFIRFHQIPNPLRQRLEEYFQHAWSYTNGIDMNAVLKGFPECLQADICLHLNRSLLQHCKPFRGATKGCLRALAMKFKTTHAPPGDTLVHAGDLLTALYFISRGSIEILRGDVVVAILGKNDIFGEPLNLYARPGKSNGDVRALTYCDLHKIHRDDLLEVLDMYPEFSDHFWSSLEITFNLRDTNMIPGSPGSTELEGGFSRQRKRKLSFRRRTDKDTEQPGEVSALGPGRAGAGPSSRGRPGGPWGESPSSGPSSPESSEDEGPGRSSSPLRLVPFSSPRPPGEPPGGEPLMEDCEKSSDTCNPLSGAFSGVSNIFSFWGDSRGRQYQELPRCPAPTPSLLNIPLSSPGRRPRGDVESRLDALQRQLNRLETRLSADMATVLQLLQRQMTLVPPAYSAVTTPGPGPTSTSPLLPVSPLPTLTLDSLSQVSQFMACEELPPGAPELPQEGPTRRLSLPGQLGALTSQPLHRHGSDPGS

Compound	hERG current change (%, negative = inhibition) at 1uM
O=C(O)CC/C(=N/NC(=O)CNC(=O)Cc1ccc(Cl)cc1)c1ccccc1	11.8%
CCN(CC)CCCN(C(=O)c1ccccc1C)c1nc(-c2ccc(OC)cc2)cs1	7%
C[C@H](NC(=O)CCC1CCC(=O)N1)c1ccccc1 (stereo partly shown)	15%
CC(C)Oc1cccc(C(=O)C2CCCN(C(=O)c3cncs3)C2)c1 (stereo not shown)	4.28%
Cc1ccc(C(C)C)c(OCC(=O)Nn2c(=O)[nH]c3ccccc3c2=O)c1	-1.61%
Cc1ccc(C)c(OCc2cc(C(=O)N3CCN(c4cnccn4)CC3)no2)c1	-23.9%
Cc1ccc2c(c1)cc(CN(Cc1ccco1)S(=O)(=O)c1ccccc1)c1nnnn12	4.69%
CN(C(=O)CC1C(=O)NCCN1Cc1ccc2ccccc2c1)C1CCOCC1 (stereo not shown)	12.1%
Cc1ccccc1NC(=O)NC1CCCc2ccccc21 (stereo not shown)	12%
COc1ccc(OCC(=O)O/N=C(\N)Cc2cccs2)cc1	8.42%
N=c1c(C(=O)NCC2CCCO2)cc2c(=O)n3ccccc3nc2n1Cc1ccco1 (stereo not shown)	-83.1%
Oc1ccc(/C=N/n2c(-c3ccccc3)n[nH]c2=S)cc1	18%
COc1ccc([C@H]2CC(=O)C=C(c3ccc(C)cc3)C2)cc1OC	3.84%
CCCCn1c(SCC(=O)Nc2ccccc2C(F)(F)F)nc2ccsc2c1=O	7.44%
Clc1cccc(Cl)c1C[n+]1ccc2ccccc2c1.[Br-]	14%
CC(C)(C)OC(=O)N1CCC[C@H]1c1nnc(SCc2ccc(Cl)cc2)o1	8.82%
COc1ccc(/C=N\NC(=O)c2cccc([N+](=O)[O-])c2)cc1Cn1cc([N+](=O)[O-])cn1	8.51%
COCCNC(=O)c1onc(CSc2ccc(C(C)C)cc2)c1C(=O)O	7.61%
C=CCn1c(SCC(=O)Nc2cccc(C)c2)nnc1-c1cnccn1	-3.12%
CCn1c(O)c(/C=N/NC(=O)c2ccccc2)c(=O)[nH]c1=S	14.3%

Compound	hERG current change (%, negative = inhibition) at 1uM
NC(=O)Cn1nnc(-c2ccc(C(F)(F)F)cc2)n1	0.549%
COCCN(C(=O)Nc1ccccc1)C(C)c1cccnc1 (stereo not shown)	15.8%
N#CC1(NC(=O)CSc2nnc(C3CC3)n2C2CC2)CCCCC1	5.6%
COc1ccc(OC)c(-c2csc(N(C)C(=O)c3ccco3)n2)c1	10.1%
Cc1ccc2[nH]c(C(=O)N/N=C/c3ccccc3C(=O)O)c(-c3ccccc3)c2c1	8.39%
Cc1nn(CCOc2cccc(Cl)c2)c(C)c1[N+](=O)[O-]	14.4%
CC[C@H](NC(=O)c1c(C)c(-c2ccccc2)nc2ccccc12)c1ccccc1	18.2%
CC(=O)NCCc1c(C)n(Cc2ccccc2)c2ccccc12	5.79%
CN(C)S(=O)(=O)Nc1ccc(NS(=O)(=O)N(C)C)c(S(=O)(=O)c2ccccc2)c1	10.2%
N=c1c(S(=O)(=O)c2ccc(Cl)cc2)cc2c(=O)n3ccccc3nc2n1CCc1ccccc1	13.2%
COc1ccc(CNC(=O)CCCC2=NS(=O)(=O)c3ccccc3N2)cc1	15.4%
COC(=O)CNC(=O)c1ccc(F)cc1	15.2%
COc1cc(NC(=O)CCCc2c[nH]c3ccccc23)cc(OC)c1	14.7%
O=C(Nc1ccc(-c2csc(Nc3cccc(C(F)(F)F)c3)n2)cc1)c1ccccc1	18.6%
CCCOC(=O)CC1C(=O)NCCN1Cc1ccc(F)cc1 (stereo not shown)	6.19%
COc1ccc(-n2cnc3cc(C(=O)N4CCOCC4)ccc32)cc1	3.06%
COC(=O)c1ccc(CSc2nnc(N)s2)cc1	2.14%
Cc1cc(CCN2CCC(=O)NC2=S)ccc1OC(C)C	0.0871%
Cc1cnc(C(=O)OCc2ccc(C#N)cc2)cn1	9.82%
Cc1cc(Br)cc(C)c1NC(=O)c1ccc(C#N)cc1F	-8.11%

Compound	hERG current change (%, negative = inhibition) at 1uM
Cc1ccc(/C=N/NC(=O)CSc2nc3ccccc3[nH]2)o1	13.6%
CC(NC(=S)Nc1ccc(F)cc1)C(c1cccs1)N1CCOCC1 (stereo not shown)	4.9%
O=C(NC(=S)NNC(=O)c1ccccc1O)c1cccnc1	7.51%
O=C(NC1CCSc2ccccc21)c1cccc([N+](=O)[O-])c1 (stereo not shown)	-3.7%
Cc1ccnn1CC(=O)N/N=C/c1ccco1	-3.49%
COc1ccccc1OCCCOc1c(Cl)cc(C)cc1Cl	13.6%
O=C(O)CN1C(=O)/C(=C\c2cccc(OCc3ccc(Cl)cc3)c2)SC1=S	15.8%
Cc1cccc(NC2=NCC(=O)N2Cc2cccs2)c1.Cl	7.45%
O=c1c2ccccc2cnn1CCOc1ccccc1	9.47%
Cc1ccc(CS(=O)(=O)c2ncc(Cl)c(C(=O)Nc3ccc(OC(F)F)cc3)n2)cc1	5.25%
COc1ccc(N2CCN(CC(O)COC(c3ccccc3)c3ccccc3)CC2)cc1 (stereo not shown)	-14.2%
CCn1c(SCC(=O)NNC(=O)Cc2ccccc2)nnc1-c1ccccc1	-14.4%
C=C(C)CN(CC)C(=O)CC1C(=O)NCCN1C (stereo not shown)	13.7%
CC(=O)Nc1ccc(NC(=O)c2c([N+](=O)[O-])c(C(C)(C)C)nn2C)cc1	-3.29%
CC(=O)NC(CC(=O)O)c1ccc(F)cc1 (stereo not shown)	8.16%
COc1ccc(Cl)cc1S(=O)(=O)N1CCC(C(=O)NC2CC2)CC1	10.3%
COc1ccc(S(=O)(=O)N2CCC(NC(=O)c3ccccc3)CC2)cc1	13.6%
COc1cc(C(=O)NCC(=O)N/N=C/c2c(C)[nH]c3ccccc23)cc(OC)c1OC	10.2%
